The other results are listed elsewhere or left out.
T1: UNK ZnF1-3 (human, UniProt Q9C0B0 31-174)
T1 sequence: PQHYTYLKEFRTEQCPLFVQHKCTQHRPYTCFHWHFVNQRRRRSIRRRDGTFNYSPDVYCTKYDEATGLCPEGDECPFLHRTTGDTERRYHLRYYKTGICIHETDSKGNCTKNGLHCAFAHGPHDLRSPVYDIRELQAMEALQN

B1: chr6:42629286:42629287:-_ENSMUSG00000036667_ENSMUST00000045054|mus_hu|FALSE|FALSE (ssRNA)
RNA: GGGAGUUCUACAGUCCGACGAUCGAAUAAUACCUUAUGGCCAGUCACAACCACCCGGCCCCGGCCAUAGCGGGCAGCCGCUAUAACACAGCCAUGGUAGGAAUCUAACCCUAGAGGAAAGGCUAAAGCCCCAUGCACUAGCAGCAACAGAGGAUUGAGCAUCA
B2: 82409221_82409341_1242_CDS_ENSG00000117114_ENST00000335786|human|control|control (ssRNA)
RNA: GGGAGUUCUACAGUCCGACGAUCAUACUGGUUGGGGAAGGGAACAUCUACAUAUUCUCCUCGGUUUAAUCGGGUAUUAUAAAUGUAAUCAAUUGAGUUCUUGCCUGUUUCACUUUCAUUGUCUUGAUAAACUGACCUAACCACCAACAGAGGAUUGAGCAUCA
B3: chr14:21838049:21838050:-_ENSG00000092201_ENST00000216297|hu_hu|motif|central (ssRNA)
RNA: GGGAGUUCUACAGUCCGACGAUCGUUGAGCUCCCCAUCCUCCUUUACAGCGAUGGUAUAUGCCACAACUGCACUGAUAUCGGUUUUGUCAAAGCCUUCUUUGUUGAGGCAGUCAUUCCAGCUCUUCAUGAACUCUCCAGGGAACAACAGAGGAUUGAGCAUCA
B4: chr14:66974463:66974464:+_ENSMUSG00000022044_ENSMUST00000074523|mus_hu|mus_mus_mus_hu_False|8_58 (ssRNA)
RNA: GGGAGUUCUACAGUCCGACGAUCUUGUAGGACGACUUAUUCAGGGGAUCGGCCAGGAAGCAGGAGCAGAACAAGGACACUAGUGGGAGCUCCUUCAUCUUCUCUUUGUAGGCAGCAAGGGUCAUGUUGGCUGGAAUUGGUGGCCAACAGAGGAUUGAGCAUCA
B5: chr1:115268999:115269000:-_ENSG00000009307_ENST00000339438|hu_hu|FALSE|FALSE (ssRNA)
RNA: GGGAGUUCUACAGUCCGACGAUCUAAAAGUCGCACACAAGUUGCAACCUGCUGUCCAGGCCUCUGUUUGUCACUAAUACUAAAUUCAACCUUAUCUCCUAUUUGAGGAGAAGUAGAUCCUUCCACAUCCUUGGCUUGAAAAGCCAACAGAGGAUUGAGCAUCA
B6: chr14:72190480:72190481:+_ENSG00000197555_ENST00000381232|hu_mus|motif|central (ssRNA)
RNA: GGGAGUUCUACAGUCCGACGAUCAAAUCCCACGGAGUUAAUGGUUCCUUCUGGCUUUUUCCAUCCAAUCAGAUAUUUGCGGGUGGCGCCCUGGCGAGGGUAGAAAGUCCUAGGUCCAGAGGAGGAUGAGGAAGAAGAGGAAAACAACAGAGGAUUGAGCAUCA
B7: 163114893_163115013_3002_3pUTR_ENSG00000143248_ENST00000313961|human|control|control (ssRNA)
RNA: GGGAGUUCUACAGUCCGACGAUCAAAAGCCCUUCUUAUUUUCCGCUGAGAGGUCUACCCACUUUCAUAGGGUGUCCAGUCAAUUUGUGAGUACAGUCCACUGGAGUCUUCAUAACAUCAACCCUCUAGGUGAGAUCUGUAAUACAACAGAGGAUUGAGCAUCA
B8: chr10:70928335:70928336:+_ENSG00000122958_ENST00000263559|hu_hu|motif|central (ssRNA)
RNA: GGGAGUUCUACAGUCCGACGAUCCCAUAAAAUUAUCUCCUGCUGUUUGAAGUACCUCCGGUCUUCCUCAUCAACAAGCACGGAAUUCAAAAAGUACCUUACUGAAAAUUUUUUGUUCACAUCUCUCAUUGUUGGAGUUGGGUCCAACAGAGGAUUGAGCAUCA
B9: chr4:175158712:175158713:-_ENSG00000164117_ENST00000503293|hu_mus|motif|central (ssRNA)
RNA: GGGAGUUCUACAGUCCGACGAUCACGGCGCGUAUUUCGAAUAAACUCUCUUUUUGACAUUUUAUUCUUCACAUGAGGACGGGUGAGGUCAAUGGAAAGUAGAAUCAAAGAGUAGCACAGUACAUAGACAGCAUCAGGACUAAGCAACAGAGGAUUGAGCAUCA
B10: chr7:54825262:54825263:-_ENSG00000132432_ENST00000352861|hu_hu|hu_hu_hu_mus_False|18_28 (ssRNA)
RNA: GGGAGUUCUACAGUCCGACGAUCCUGCCGGCUGGGCUCCACAAACUGCAUUACCUGAUCCAUGUUUGUUGGAUGGCGGAUUGAGAGCGUAGAGACACGUAGCUCAGGGAGCUUGCUGAUGGAGGCCAACCGGAAGCUGGCAACCAACAGAGGAUUGAGCAUCA
B11: chr2:156005782:156005783:-_ENSMUSG00000027620_ENSMUST00000109587|mus_hu|FALSE|FALSE (ssRNA)
RNA: GGGAGUUCUACAGUCCGACGAUCGCGGAACCGCCCAGCCCGAAUAUCGGGUUCCAAGGACGGCUAGGCCCGAGAGAAUCUAAAAAAAACAAUGGAAUUAGAGAAGCCCACGCGGGAGAGCAGGACGGCGGCUUCGGCAGCUCACAACAGAGGAUUGAGCAUCA
B12: chr1:8022837:8022838:+_ENSG00000116288_ENST00000493373|hu_mus|motif|central (ssRNA)
RNA: GGGAGUUCUACAGUCCGACGAUCUCUCCUCUGCUCCUUUGGCCAGGAUGACCAGAGCUCUUUUGGAAGCCAUUUCGGUUUCUUAAAGACUGCAGCCGCGCCUCCUCCACCCACGCGAAGCCACCGCUAGUCCGCAGGAACCUCCAACAGAGGAUUGAGCAUCA
B13: chr1:39494447:39494448:+_ENSG00000168653_ENST00000372967|hu_mus|hu_hu_hu_mus_False|48_78 (ssRNA)
RNA: GGGAGUUCUACAGUCCGACGAUCGCACCGAGCGGCGUUCUUAUAGGGCUGUUCUGCACUCUGGAUUAUAAAGUGCCGGUCCAGGCUAAGGCCGAACUUUUUCUGUAUGUCAAGGAAAGGCAUGGCUCUGCAGUGCCCUUGUCACAACAGAGGAUUGAGCAUCA
B14: chr1:173703207:173703208:+_ENSG00000076321_ENST00000209884|hu_mus|FALSE|FALSE (ssRNA)
RNA: GGGAGUUCUACAGUCCGACGAUCAGCAGCAGGCAAGAGAGUCUGAACAUUGCCCUCUUCCACAGUGAUCUGGGAGGUAUAUGCAAAGUCAAUCAGGAGCUCCAUGGCCCUCUCAUCUAUGUCUCGGAUCACUACUUCUGUCUGCAACAGAGGAUUGAGCAUCA
B15: chr1:82727704:82727705:+_ENSMUSG00000026150_ENSMUST00000078332|mus_hu|FALSE|FALSE (ssRNA)
RNA: GGGAGUUCUACAGUCCGACGAUCCAGGGGUUUAAAGGGAGUUGACUGAAUAAGGUCAAGAUCUGCUGGUCUUGAAAAUGAAACAUCUUCAUUAUUUCCUGCUACAACAAUCCUCUCCGGAACUUGCAUUAUCACACUAGCAUUCAACAGAGGAUUGAGCAUCA
B16: 109517254_109517374_2683_CDS_ENSG00000085433_ENST00000369962|human|control|control (ssRNA)
RNA: GGGAGUUCUACAGUCCGACGAUCAGGAUGAUAACUUUGUACCAUUCUUCCUCCUCUUAUGUCAUACAACAUGCAGCUAGAAUCUUCUUGACCUGUGGCUAAGAGACGACCACUGGGAUCUACAGCUACAGAUGCCACUGCACUCAACAGAGGAUUGAGCAUCA
B17: 56392320_56392440_10171_CDS_ENSG00000151914_ENST00000244364|human|control|control (ssRNA)
RNA: GGGAGUUCUACAGUCCGACGAUCUUCUCCUUUCAGAACCUGAGUUUCAUAUGAAAGUAAUUCCACCUCCACUUUGUCCAGCCAGGUACACAGCUCUUCGUGUGUGGAGUGCAGCCGCCUUGCAAGCUGCAGCGCCUGUUCCAGCAACAGAGGAUUGAGCAUCA
B18: chr4:52453130:52453131:+_ENSMUSG00000028312_ENSMUST00000117280|mus_hu|FALSE|FALSE (ssRNA)
RNA: GGGAGUUCUACAGUCCGACGAUCUCCUCUGAGCAUAGGACUUGAAUCCCUCUAGAAUAAUUGACUUAAUAUGCAUUUUCGAUACUGUCUUGGGUCAGCAAACCUCUGACAGGAAUCAAACAGGCCACAAACCAGUUCGCUGCCCAACAGAGGAUUGAGCAUCA
B19: chr7:135612270:135612271:-_ENSG00000105887_ENST00000393085|hu_mus|hu_hu_hu_mus_False|1_48 (ssRNA)
RNA: GGGAGUUCUACAGUCCGACGAUCGUUUUUUUCUGAGAUGUUAAAUAGUACUUCAGUGGAAAACAAAACUUAACCUUUUAUUAAUGCAUGUAGUACCAAAAGCAGACAUUUUAGCUUCAUUUAUUCAAAAAUAUUAAGAACAUUCAACAGAGGAUUGAGCAUCA
B20: chrX:123197699:123197700:+_ENSG00000101972_ENST00000371157|hu_mus|FALSE|FALSE (ssRNA)
RNA: GGGAGUUCUACAGUCCGACGAUCUGUGUGCUUCUCUACAAUAUUUCGGAUCUGGCGCAAUAAGGCAUCCAAAUGCUUUUCUAAUCGUCCAGUGGUGUAUAUCUCCAAAUCAAAGUACUGAGGUAACUGCAACAAAUUGGUCACCAACAGAGGAUUGAGCAUCA
B21: chr1:111660612:111660613:-_ENSG00000156171_ENST00000539140|hu_mus|FALSE|FALSE (ssRNA)
RNA: GGGAGUUCUACAGUCCGACGAUCAAAAAAGUCUAGACAUGUUUUUAGAUGGACUUCUUAACAACAUCCUUUAAGAAAACUUACCAGAUGGCUUAUUACAUUUUUCCUGAUAUCAUGUUUCAUUAGUGUCACUGUCAGCCUUGACAACAGAGGAUUGAGCAUCA
B22: 25570260_25572684_1282_CDS_ENSG00000170558_ENST00000399380|human|control|control (ssRNA)
RNA: GGGAGUUCUACAGUCCGACGAUCAUUUUCUGCAGCAACAGUAAGGACAAACAUCCUAUUUGUUUCAAAGUCGAUUGGUUUGACCACGGUGACUAACCCGUCGUUGCUGUUUGGGUCGGUCUGGAUGGCGAACCGUCCAGUAGGCAACAGAGGAUUGAGCAUCA

The binders below were run against T1, UNK ZnF1-3 (assay: nsRBNS (natural sequence RNA bind-n-seq); RBNS binding buffer (assumed for nsRBNS): 25 mM Tris pH 7.5, 150 mM KCl, 3 mM MgCl2, 0.01% Triton X-100, 500 ug/ml BSA, 20 U/ml SUPERase-In, 4 C; UNK is unkempt and MSI1 is Musashi-1; names of the RNAs are library labels; protein concentration not given here; high values mean tight binding).

Binder | binding signal
B1 | 1.35 enrichment R
B2 | 0.83 enrichment R
B3 | 0.939 enrichment R
B4 | 2.11 enrichment R
B5 | 0.823 enrichment R
B6 | 2.06 enrichment R
B7 | 0.888 enrichment R
B8 | 0.98 enrichment R
B9 | 1.71 enrichment R
B10 | 0.637 enrichment R
B11 | 1.27 enrichment R
B12 | 0.729 enrichment R
B13 | 0.871 enrichment R
B14 | 1.76 enrichment R
B15 | 0.953 enrichment R
B16 | 0.818 enrichment R
B17 | 0.696 enrichment R
B18 | 1.1 enrichment R
B19 | 1.22 enrichment R
B20 | 1.41 enrichment R
B21 | 0.712 enrichment R
B22 | 0.819 enrichment R
